Test results from article PMC4336329 (PLoS ONE, 2015).
The campaign covered roughly 310,000 compounds. About 14,000 (4.5%) showed an effect of 50% or more. Effects have a minus sign here. Some of the results follow.

What follows are compounds tested against human ether-à-go-go-related gene (hERG) potassium channel (human, UniProt Q12809) (assay: primary screen, population patch clamp on CHO cells stably expressing hERG).
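Note: peak tail current of the secondary pulse compared with the same well before compound.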

human ether-à-go-go-related gene (hERG) potassium channel, sequence (Q12809 whole entry, looked up): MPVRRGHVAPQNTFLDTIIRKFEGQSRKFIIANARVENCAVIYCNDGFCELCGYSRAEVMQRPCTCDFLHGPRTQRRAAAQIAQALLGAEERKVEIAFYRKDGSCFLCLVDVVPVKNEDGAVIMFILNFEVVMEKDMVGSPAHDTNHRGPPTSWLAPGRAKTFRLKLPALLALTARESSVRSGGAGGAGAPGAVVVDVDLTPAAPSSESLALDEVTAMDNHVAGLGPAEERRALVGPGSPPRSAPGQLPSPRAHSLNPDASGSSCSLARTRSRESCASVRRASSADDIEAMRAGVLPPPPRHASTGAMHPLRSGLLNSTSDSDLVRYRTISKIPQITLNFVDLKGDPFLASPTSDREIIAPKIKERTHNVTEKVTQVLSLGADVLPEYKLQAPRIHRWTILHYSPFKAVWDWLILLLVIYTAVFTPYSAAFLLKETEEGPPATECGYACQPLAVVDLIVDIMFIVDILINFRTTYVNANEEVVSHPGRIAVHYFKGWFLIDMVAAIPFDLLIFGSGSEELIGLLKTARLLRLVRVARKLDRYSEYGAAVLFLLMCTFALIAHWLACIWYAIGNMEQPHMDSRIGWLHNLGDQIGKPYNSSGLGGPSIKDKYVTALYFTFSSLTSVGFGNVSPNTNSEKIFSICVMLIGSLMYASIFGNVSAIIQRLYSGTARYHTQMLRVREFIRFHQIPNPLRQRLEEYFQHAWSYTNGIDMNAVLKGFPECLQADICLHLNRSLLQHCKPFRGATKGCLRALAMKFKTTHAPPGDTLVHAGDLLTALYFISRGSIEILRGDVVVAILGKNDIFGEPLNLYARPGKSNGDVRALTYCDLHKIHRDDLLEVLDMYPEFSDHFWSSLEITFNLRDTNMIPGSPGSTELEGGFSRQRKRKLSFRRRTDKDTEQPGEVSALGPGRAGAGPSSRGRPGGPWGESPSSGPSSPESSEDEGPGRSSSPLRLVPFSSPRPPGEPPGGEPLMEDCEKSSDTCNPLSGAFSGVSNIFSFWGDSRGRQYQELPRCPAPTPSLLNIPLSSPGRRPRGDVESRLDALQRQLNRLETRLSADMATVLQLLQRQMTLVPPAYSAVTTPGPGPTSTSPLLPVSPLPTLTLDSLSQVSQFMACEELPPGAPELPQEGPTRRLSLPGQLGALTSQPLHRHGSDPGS

| SMILES | hERG current change (%, negative = inhibition) at 10uM [%] |
| --- | --- |
| CC(Oc1ccccc1)C(=O)N=C1SC2CS(=O)(=O)CC2N1c1ccc(F)cc1 (centres unmarked) | -11.2 |
| COc1ccc(C(=O)NCC(c2cccs2)N2CCOCC2)cc1OC (centres unmarked) | -7.42 |
| CCOC(=O)c1cc(-c2ccc(OC)cc2F)nc2c1c(C)nn2CCC#N | -4.2 |
| Cc1nn(C)c(C)c1CN(C)C(=O)C1CCC(=O)N(C2CCCCCC2)C1 (centres unmarked) | 13.8 |
| CCOC(=O)Oc1ccc(C(=O)OCCCN(C)C)cc1OC.Cl | -17.7 |
| COc1ccc(OCC(=O)Nc2ccc3c(c2)nc(CCN2CCCCC2)n3C)cc1 | -65.5 |
| O=C(Nc1ccc(O)cc1)N1CCOCC1 | 10.8 |
| CN(C(=O)COC(=O)C1=COCCO1)c1c(N)n(Cc2ccccc2)c(=O)[nH]c1=O | 17.8 |
| CCN(c1ccccc1)S(=O)(=O)c1ccc(OCC(=O)N2CCCC2)cc1 | -10.4 |
| CCn1c(SCC(=O)NC2CC2)nnc1-c1ccc(C)cc1 | 1.36 |
| COc1ccc(NC(=O)CSc2ccc(-c3ccco3)nn2)c(OC)c1 | 4.1 |
| Cc1cc(C)c(NC(=S)N(C)C)cc1C | 1.12 |
| COc1ccc(S(=O)(=O)N(C)c2ccc(C(=O)N3CCN(c4ccccc4)CC3)cc2)cc1OC | -41.2 |
| COc1cccc(Cn2cnc3c(N)c(C)c(C)cc32)c1 | -10 |
| OCC1(Cc2ccccc2)CCCN(Cc2ccc(-c3ccco3)cc2)C1 (centres unmarked) | -5.88 |
| CC(C)c1ccc(/C=C/C(=O)Nc2nncs2)cc1 | 2.84 |
| COc1ccc(NC(=O)CN2C(=O)/C(=C3\SC(=S)N(CCC(=O)O)C3=O)c3ccccc32)cc1 | 16 |
| Cc1oc2c(c(C)cc3oc(=O)c(CC(=O)N[C@@H](C)C(=O)O)c(C)c32)c1C | 21.1 |
| C/C(=N\Nc1ccc(F)cc1F)c1ccc(N2CCOCC2)cc1 | 12.8 |
| COc1ccc(F)cc1S(=O)(=O)N1CCC2(CC1)OCCN2S(=O)(=O)c1cccs1 | -42.6 |
| O=C(CSc1nnnn1-c1ccc(F)cc1)NNC(=O)c1ccco1 | -5.99 |
| CC(=O)N1c2ccc(S(=O)(=O)N(C)CC(=O)NCc3ccc(C)cc3)cc2CC1C (centres unmarked) | 19 |
| OCC[C@@H]1C[C@H](O)[C@@H](O)[C@]2(CCc3ccccc3CO2)O1 | 15.9 |

| SMILES | hERG current change (%, negative = inhibition) at 10uM [%] |
| --- | --- |
| Cc1ccc(OCC(=O)OCc2nc3scc(-c4ccccc4)c3c(=O)[nH]2)cc1C | 4.97 |
| O=C(Nc1ccc(Cl)c(S(=O)(=O)N2CCOCC2)c1)c1ccc(OCC2CCCO2)cc1 (centres unmarked) | -6.57 |
| O=C1CCC(C(=O)OCC(=O)C23CC4CC(CC(C4)C2)C3)N1 (centres unmarked) | -0.714 |
| Oc1ccc(N=C/C=C/c2cccc(Br)c2)cc1-c1nc2ccccc2s1 | 20.9 |
| CC(=O)NC1C(=O)Nc2c1cccc2C(F)(F)F (centres unmarked) | 11.6 |
| O=C(NNC(=O)c1cccc(-n2cnnn2)c1)c1ccccc1 | 21.2 |
| Cl.Nc1cccc(Nc2ncnc3ccccc23)c1 | 14.2 |
| Cn1cc(C(=O)N/N=C/c2cccc(O)c2)ccc1=O | 14.2 |
| COc1ccc(NC(=O)CCN2C(=O)c3ccccc3C2=O)c(OC)c1 | 7.18 |
| Cc1cc(C(=O)O)cc(Br)c1N | 4.61 |
| Clc1cnc(Nc2cccnc2)c(Cl)c1 | -7.58 |
| CCOc1ccc(NC2CCCCC2NS(=O)(=O)c2ccccc2)cc1 (centres unmarked) | -7.37 |
| Cc1ccc2c(C(=O)CN3CCN(C(=O)c4ccco4)CC3)c(C)[nH]c2c1 | -11.5 |
| CCN(CC)CCOC(=O)c1ccc(N=Cc2c(O)[nH]c(=O)[nH]c2=O)cc1 | -1.88 |
| Cc1ccc(S(=O)(=O)NC2CCCCC2)cc1 | 10.7 |
| Cc1ccc(CN(C(=O)c2c(F)cccc2F)C2CC(C)(C)NC(C)(C)C2)o1.Cl | -25.1 |
| COc1cccc(/C=N/NC(=O)CSc2ccccc2C)c1O | -16.8 |
| CCCn1c(NC(=O)c2ccc(Br)cc2)nc2ccccc21 | -1.86 |
| CN(C)CC1CSCCC1(O)c1ccccc1Cl.Cl (centres unmarked) | 2.83 |
| CCN(CC)S(=O)(=O)c1ccc2c(c1)c(=O)c(C(=O)N1CCOCC1)cn2C | 4.64 |
| Cc1ccc(S(=O)(=O)/N=C(/NC(=S)Nc2cccc(C)c2)c2ccccc2)cc1 | 6.31 |
| COc1cc(CC(=O)OCC(=O)Nc2ccc(N3CCOCC3)cc2)cc(OC)c1OC | -2.66 |
| CCCOCCOC(=O)c1[nH]c2c(c1C)C(=O)CC(c1cc(OC)ccc1OC)C2 (centres unmarked) | 5.2 |

| SMILES | hERG current change (%, negative = inhibition) at 10uM [%] |
| --- | --- |
| CCN(CC)C(=O)Cn1cc(S(=O)(=O)CC(=O)Nc2ccc3c(c2)OCCO3)c2ccccc21 | -9.47 |
| CC1CC2=C(C(=O)O1)C(C)Nc1ccccc1N2 (centres unmarked) | 0.756 |
| COc1cc(/C=C/C(=O)OCC(=O)N2CCCC2)ccc1OCC#N | -6.14 |
| CCS(=O)(=O)N1CCC(C(=O)NCCCN2CCCC2)CC1 | 24.9 |
| COCCn1c(SCCCC(=O)c2ccc(Br)cc2)nnc1-c1ccncc1 | -60.7 |
| Cc1nc2nc(-c3ccccc3)[nH]n2c(=O)c1C | -3.77 |
| O=C(Nc1cccc(S(=O)(=O)N2CCCC2)c1)C1CCCN1C(=O)c1cccs1 (centres unmarked) | -7.77 |
| CC(=O)c1c(O)cc(C)n(Cc2ccccc2)c1=O | -5.14 |
| O=C(CSc1ncnc2c1nnn2-c1ccc(F)cc1)NCc1ccco1 | -3.27 |
| O=C1NCN(CCO)CN1 | 8.23 |
| Oc1ccc(/C=N/N2CCN(c3ccccn3)CC2)cc1 | 5.86 |
| COC(=O)C1=C(c2ccc(C(C)=O)cc2)C[C@@H]2CC[C@H]1N2C(=O)NCCO | -2.53 |
| CC(=NCc1ccco1)c1c(O)n(-c2ccccc2C)c(=O)[nH]c1=O | 20.9 |
| COc1cc(S(=O)(=O)Nc2ccccc2C)ccc1NC(=O)c1ccncc1 | -2.55 |
| CCOCCCNC(=O)c1ccc2c(c1)ncn2-c1cccc(C)c1 | -33.2 |
| Nc1ccccc1C(=O)Nc1cccc(C(=O)O)c1 | 8.6 |
| Cc1cc(/C=C2/C(=O)NC(=O)N(c3ccc(Br)cc3)C2=O)c(C)n1C | 9.31 |
| Cn1c(SCC(=O)NCC2CCCO2)nnc1-c1cccc(NC(=O)c2ccccc2F)c1 (centres unmarked) | 4.14 |
| CC(C)(C)c1[nH]nc2c1C(c1cccnc1)C(C#N)=C(N)O2 (centres unmarked) | 3.46 |
| Cc1ccc(C(=O)NNC(=O)c2ccc(NS(=O)(=O)c3cccs3)cc2)o1 | -16.5 |
| CC1CN(Cc2ccccc2)C(C)CC1O (centres unmarked) | -29.1 |
| COC(=O)CN1C(C)=Nc2ccc(C)cc2C1c1ccccc1 (centres unmarked) | -43.1 |
| Cc1cc(NC(=O)CSc2c(C)[nH]c3ccccc23)no1 | 7.46 |

| SMILES | hERG current change (%, negative = inhibition) at 10uM [%] |
| --- | --- |
| CCCc1ncc(C(O)c2cccc(OC)c2OC)n1C (centres unmarked) | 12.7 |
| O=C1/C(=C/c2cccs2)SC(=S)N1c1ccccc1 | 10.5 |
| CC(=O)c1cccc(NC(=O)c2ccccc2N(C)S(=O)(=O)c2ccc(C)cc2)c1 | -46.7 |
| CCN(CC)S(=O)(=O)c1ccc(Cl)c(NC(=O)CSc2nnc(-c3cccs3)o2)c1 | -23.1 |
| O=C(CCn1c(=S)oc2ccccc21)Nc1ccc2c(c1)OCCO2 | 0.605 |
| CC(C)c1ccc2[nH]c(O)c(N=NC(=O)c3cccc(S(=O)(=O)Nc4ccccc4Cl)c3)c2c1 | 6.86 |
| O=C(c1nc2ccc(Cl)cn2c1CN1CCC[C@H]1CO)N1CCCCCCC1 | -1.18 |
| CC(=O)N(Cc1ccccc1)c1ncc2c(n1)c(=O)c(C#N)c1ccccn12 | 10.4 |
| CCNC(=S)N/N=C/c1c(Cl)cccc1Cl | 18.1 |
| CCn1cc([N+](=O)[O-])c(C(=O)Nc2nc(-c3ccc(C)cc3)c(C)s2)n1 | -9.72 |
| CCN(CC(=O)Nc1ccc(NC(C)=O)cc1)C(=O)/C=C/c1cn(-c2ccccc2)nc1-c1ccc(C)cc1 | 10.9 |
| COc1ccc(C/C(C)=N/NC(=S)Nc2ccc(Cl)cc2)cc1 | 24.5 |
| O=CN1CCC(=O)N(Cc2ccccc2)c2ccccc21 | -4.26 |
| CN1CCN(c2ccc([N+](=O)[O-])c(SCCO)c2)CC1 | -0.278 |
| O=C(NCc1ccco1)C(=O)c1c[nH]c2ccccc12 | -3.84 |
| c1ccc2[nH]c(Cn3nnc4ccccc43)nc2c1 | -3.46 |
| CCC1CCc2sc(C(=O)N(C)CC(=O)Nc3ccc(N4CCOCC4)cc3)cc2C1 (centres unmarked) | 7.7 |
| N#CCCN1CCN(C2=NC(=O)/C(=C\c3cccs3)S2)CC1 | -52.4 |
| CN1CCN(C(=O)C23CCC(C)(c4nc5ccccc5nc42)C3(C)C)CC1 (centres unmarked) | -53.3 |
| CCOC(=O)c1c(C)[nH]c(C)c1S(=O)(=O)N(C)CC(=O)Nc1cccc(C)n1 | -2.05 |
